Broadly, the % Inhibition is the change of the read-out against control, counted positive when it falls.

We go through 43 molecules from ChEMBL document CHEMBL4888484, “Replenishing the malaria drug discovery pipeline: Screening and hit evaluation of the MMV Hit Generation Library 1 (HGL1) against asexual blood stage Plasmodium falciparum ,using a nano luciferase reporter read-out” (2022).

The structures appear in SMILES notation. About 540 (0.36%) of roughly 150,000 compounds showed an effect of 50% or more. The list shows a part of the results.

This experiment relates to Plasmodium falciparum. Put plainly: Primary screen in NF54 nanoGlo assay, in single point, at 2uM, 72h; a lower Z score goes with more inhibition. It counts as functional, Erythrocyte. Conditions: timepoint 72 hour.
Take `CN1CCN([C@H]2COC[C@@H]2NC(=O)c2ccc(F)cc2)CC1`: the “% Inhibition” value was -13% and the Z score is 2.

`O=C(NC1CCCCC1)Oc1cc2oc(=O)sc2cc1Cl`: the “% Inhibition” value is on record as -15% and the Z score is 2.41.

`CCc1ccc(-c2cn(CCc3c[nH]cn3)nn2)nc1`: the “% Inhibition” value is listed as -20% and the Z score was 1.98.

On to `CCc1cccc(CN2C3CCC2C(C(=O)O)C3)c1` (stereo unspecified), for which the “% Inhibition” value is given as -6% and the Z score turned out to be 0.47.

As to `Cc1cc(CN2C[C@H](c3cnn(C)c3)C3(CCOCC3)C2)no1`, the “% Inhibition” value is -15% and the Z score was 1.68.

With `Cc1cc(CN2CC3(CCCC3)OC[C@@H]2CN(C)C)on1`, the “% Inhibition” value was -12% and the Z score came to 1.83.

In the case of `Cc1nc2ccccc2n1CCN[C@@H](C)Cc1ccccn1`, the “% Inhibition” value is 4% and the Z score was -0.84.

On to `COCCc1ncc(CN2[C@@H]3CC[C@H]2C[C@@H](c2ccc(OC)cc2)C3)cn1`, for which the “% Inhibition” value is listed as -5% and the Z score is 1.04.

As for `Cn1nc(OC(=O)Nc2ccccc2)cc1C(F)(F)F`, the “% Inhibition” value came out at 38% and the Z score is given as -4.9.

Take `Cc1ccc2c(c1)[C@@H]1CN(C)CC[C@H]1N2C(=O)C1CCCC1`: the “% Inhibition” value is -10% and the Z score was determined as 1.83.

On to `O=S(=O)(c1cc(F)cc(F)c1)N1CCC[C@H]1c1cccnc1`, for which the “% Inhibition” value is -5% and the Z score amounted to 0.59.

`C[C@@H](C1CC1)N1CCOC2(CCCCCC2)C1`: the “% Inhibition” value is listed as -7% and the Z score is listed as 0.79.

With `COCC(C)(C)CNC(=O)C1C(C)(C)C1(C)C`, the “% Inhibition” value is listed as -13% and the Z score stood at 1.48.

Consider `N#Cc1ccnc(CN2CC[C@@H]3CCCC[C@H]3C2)c1`, for which the “% Inhibition” value is listed as -5% and the Z score came to 0.87.

On to `Cc1ccc(OCC(=O)N2C[C@H](N(C)C)C[C@H]2CO)cc1`, for which the “% Inhibition” value is -12% and the Z score was determined as 1.35.

For the molecule `COCCCNC(=O)c1c(Cc2ccccc2C)n(Cc2ccccn2)c(C)cc1=O`, the “% Inhibition” value is -5% and the Z score is 0.65.

Regarding `CCCCNC(=O)O[C@@H](C)CNC(=O)Oc1cccc(C)c1`, the “% Inhibition” value is listed as -13% and the Z score is listed as 1.66.

On to `O=C(c1cccnn1)N1C[C@H](c2cccc(F)c2F)[C@@H]2[C@H]1C1CCN2CC1`, for which the “% Inhibition” value is on record as -5% and the Z score amounted to 0.71.

As to `CCc1nc(CN(CCc2cccc(F)c2)C2CC2)no1`, the “% Inhibition” value is listed as -9% and the Z score is 0.87.

For the molecule `c1ccc(CCNC[C@H]2CCCO2)cc1`, the “% Inhibition” value was -14% and the Z score turned out to be 1.57.

As for `CN1C[C@@]2(Cc3c1ccc1ccccc31)C(=O)NC(=O)N(CCc1ccccc1)C2=O`, the “% Inhibition” value stood at 8% and the Z score was -0.95.

As for `CC(C)c1csc(C2CCNCC2)n1`, the “% Inhibition” value is -9% and the Z score was found to be 0.84.

As for `CN1C[C@@H]2CN(c3nccc(Oc4ccccc4)n3)C[C@@H]2C1`, the “% Inhibition” value is on record as 12% and the Z score is given as -1.44.

Consider `Fc1cc(F)cc([C@H]2CN(Cc3ccncc3)[C@@H]3C4CCN(CC4)[C@H]23)c1`, for which the “% Inhibition” value was -5% and the Z score stood at 0.88.

As to `Cc1cc(C(=O)N2CCC(N(C(=O)C(F)(F)F)c3cccnc3)CC2)ncn1`, the “% Inhibition” value was -8% and the Z score is given as 1.01.

For `Clc1ccc2nccc(-c3cccc4c3CCNC4)c2c1`, the “% Inhibition” value is reported as -7% and the Z score turned out to be 1.27.

For the molecule `COc1ccccc1Cn1cc(C(=O)NCCOC(C)C)c(=O)c(C(=O)NCCC2=CCCCC2)c1`, the “% Inhibition” value is listed as -14% and the Z score was 2.05.

Take `CN1C[C@H]2CC[C@@H](C1)N(Cc1cc(-c3ccccc3)no1)C2`: the “% Inhibition” value is -2% and the Z score turned out to be 0.42.

On to `O=C(c1onc2c1CCCC2)N1C[C@@H](c2ccccc2)[C@@H]2[C@H]1C1CCN2CC1`, for which the “% Inhibition” value is 2% and the Z score is -0.23.

In the case of `OC12C[C@@H](C3CO[C@@H]1O3)n1ncnc1N2`, the “% Inhibition” value is given as -12% and the Z score was determined as 1.89.

Turning to `Cc1cc(C)c(C)c(S(=O)(=O)N(C(=O)Oc2ccccc2)c2ccc3oc(=O)sc3c2)c1C`, the “% Inhibition” value is on record as -36% and the Z score was determined as 4.81.

In the case of `CN1CCC[C@@]2(CCN(c3ncc(F)c(-c4ccsc4)n3)C2)C1`, the “% Inhibition” value is 4% and the Z score is -0.74.

For the molecule `Cc1c[nH]c(CN(C)CCc2ccccc2C)n1`, the “% Inhibition” value was -4% and the Z score was 0.46.

Turning to `O=C1NC(=O)C2(Cc3cc(C(F)(F)F)ccc3N3CCOCC32)C(=O)N1c1ccccc1` (stereo unspecified), the “% Inhibition” value is on record as -41% and the Z score worked out at 4.79.

`O=S(=O)(N1CCCC1)N1C[C@@H]2CC[C@H]1CN(Cc1ccccn1)C2`: the “% Inhibition” value is reported as 5% and the Z score is on record as -0.75.

As for `c1cc(CN2CCC3(CC2)CCN(Cc2ccon2)C3)no1`, the “% Inhibition” value came out at 4% and the Z score is on record as -0.69.

Regarding `CCn1cc(-c2ccc(C)cc2)cc1C(=O)N1CCC2(CC1)OCCO2`, the “% Inhibition” value is 4% and the Z score is recorded as -0.7.

With `Fc1ccc(CN2CCc3[nH]cnc3C23CCCCC3)nc1`, the “% Inhibition” value was -5% and the Z score is reported as 1.08.

As to `N[C@@H](Cc1ccccc1)c1cc2ccccc2[nH]1`, the “% Inhibition” value is on record as -40% and the Z score is recorded as 4.72.

For the molecule `CN1C(=O)N(C)C(=O)C2(Cc3cc(C(F)(F)F)ccc3N3CCCC[C@H]32)C1=O`, the “% Inhibition” value turned out to be 1% and the Z score is -0.15.

For `CCCN1C[C@@H]2CC[C@H]1CN(c1ccc3ccccc3n1)C2`, the “% Inhibition” value is listed as -1% and the Z score was found to be 0.13.

`C[C@H](NC(=O)Nc1ccccc1)C(=O)N1CCN2CCC1CC2`: the “% Inhibition” value is reported as -4% and the Z score is recorded as 0.35.

Regarding `O=C1NC(=O)C2(Cc3cccc(F)c3N3CCCC32)C(=O)N1c1ccccc1` (stereo unspecified), the “% Inhibition” value was -20% and the Z score was found to be 2.63.
